Experimental data published in PubChem BioAssay AID1476 (National Center for Advancing Translational Sciences (NCATS), 2009).
Out of some 200,000 compounds screened, about 4,500 (2.2%) were called active. This list was built around the results that the source calls inconclusive (neither active nor inactive); the mix of calls is not that of the screen. Calls follow the shape of the dose curve; as a rule, active = well fitted inhibition curve with a large enough effect; inconclusive = small, poorly fitted or top-dose-only effect, or effect the other way; inactive = flat fitted curve, though single readings scatter. Potencies beside an inconclusive call are fits to weak or partial responses and may not hold up.

target: Cruzipain (Trypanosoma cruzi) (UniProt P25779); assay: qHTS Assay for Promiscuous and Specific Inhibitors of Cruzain (without detergent); settings: purified cruzain, Z-FR-AMC fluorescence, no detergent; also: nearly all actives have a fitted effect of over 40% in size;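 as to max response, negative = inhibition: plate controls were enzyme without inhibitor for no effect and buffer without enzyme for full effect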
UniProt P25779, sequence (P25779 whole entry, looked up): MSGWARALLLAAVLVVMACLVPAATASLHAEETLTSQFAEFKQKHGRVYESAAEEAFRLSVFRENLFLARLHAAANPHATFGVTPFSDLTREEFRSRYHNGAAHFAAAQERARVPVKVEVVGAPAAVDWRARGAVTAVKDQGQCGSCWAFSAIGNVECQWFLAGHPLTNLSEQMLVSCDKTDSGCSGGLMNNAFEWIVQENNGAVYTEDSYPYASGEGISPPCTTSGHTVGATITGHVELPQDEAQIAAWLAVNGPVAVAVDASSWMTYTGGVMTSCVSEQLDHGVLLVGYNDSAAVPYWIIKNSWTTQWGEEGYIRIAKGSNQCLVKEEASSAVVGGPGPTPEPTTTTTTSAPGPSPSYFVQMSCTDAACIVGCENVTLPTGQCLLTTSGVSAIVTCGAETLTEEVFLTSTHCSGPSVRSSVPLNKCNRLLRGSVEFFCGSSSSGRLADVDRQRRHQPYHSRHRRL
How it was run: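 Purified cruzain at 1.5 nM, pre-incubated 15 min with compound at room temperature in 100 mM sodium acetate pH 5.5, 5 mM DTT, 0.00005% Triton X-100. Reaction started with 2 uM Z-FR-AMC; AMC fluorescence increase over 60 s gives rate.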
Potency is read from the fitted curve at half-maximal effect; tags tell the direction and shape of the fitted curve.

Row | SMILES | max response, negative = inhibition | Potency
1 | Cc1ccc(-c2cc(C(=O)OCC(=O)c3ccccc3)c3cccc(Cl)c3n2)cc1 | inactive: -24.6% | –
2 | CCC(Sc1nc2ccccc2c2nc(CCn3c(C)nc4ccccc43)nn12)C(=O)Nc1ccc(F)cc1 (stereo not given) | inactive: -3.93% | –
3 | COc1ccc(Br)c(C(=O)Nc2cc3c(cc2N2CCCC2)n(C)c(=O)c(=O)n3C)c1 | inactive: -8.54% | –
4 | Cc1ccc(C)c(NC(=O)C(Sc2nc3ccccc3c(=O)n2CC(C)C)c2ccccc2)c1 (stereo not given) | – | active: 20 µM
5 | O=C(OCc1ccco1)c1ccc2c(c1)N(Cc1cccc(F)c1)C(=O)c1ccccc1S2 | – | inconclusive: 39.8 µM [inhibitor, single point]
6 | Cc1nnc(N2C(=O)C(O)=C(C(=O)c3ccco3)C2c2ccc(C(C)C)cc2)s1 (stereo not given) | – | inconclusive: 39.8 µM [activator, single point]
7 | COc1ccc(CCNC(=O)c2cc(=O)c3cc(C)cc(C)c3o2)cc1OC | – | inconclusive: 39.8 µM [activator, single point]
8 | CC(=O)NCCn1c(SCc2ccccc2F)nc2ccccc2c1=O | – | inconclusive: 39.8 µM [activator, single point]
9 | CCCCCn1c(=O)[nH]c2cc(C(=O)NCCN(C)CCCC)ccc2c1=O | inactive: 2.28% | –
10 | CCc1ccc(-n2nc3cc(C)c(NC(=O)c4ccccc4C)cc3n2)cc1 | inactive: -5.27% | –
11 | Cc1cc(N(C)Cc2ccccc2)n2nc(-c3ccc(C(C)(C)C)cc3)nc2n1 | inactive: -4.52% | –
12 | CC(C)(c1ccc(OC[C@@H]2CO2)cc1)c1ccc(OC[C@H]2CO2)cc1 | – | inconclusive: 39.8 µM [activator, single point]
13 | O=c1c(-c2ccc(O[C@@H]3O[C@H](CO)[C@@H](O)[C@H](O)[C@H]3O)cc2)coc2cc(O)cc(O)c12 | inactive: -0.278% | –
14 | CNC(=O)COC(=O)/C=C/c1c(C)nn(-c2ccccc2)c1C | inactive: -5.15% | –
15 | CCCCNC(=O)c1cccc(-n2cnc3cccnc32)c1C | inactive: 5.74% | –
16 | Cc1cc(=O)oc2cc3c(cc12)OCCN3 | – | inconclusive: 39.8 µM [inhibitor, single point]
17 | NC(=O)c1cccc(N)c1 | – | inconclusive: 39.8 µM [activator, single point]
18 | Brc1ccc2ncnc(Nc3cccc4ccccc34)c2c1 | – | inconclusive: 31.6 µM [inhibitor, single point]
19 | C=CCOc1ccc(C2NC(=S)NC(C)=C2C(=O)c2ccccc2)cc1OC (stereo not given) | – | inconclusive: 31.6 µM [inhibitor, single point]
20 | COc1cc(/C=C2\C(=O)N(c3ccccc3)N=C2C)ccc1Oc1ccc([N+](=O)[O-])cc1[N+](=O)[O-] | – | inconclusive: 3.98 µM [inhibitor, full curve]
